In paper PMC4336329 (PLoS ONE, 2015):
The whole screen tested about 310,000 compounds, of which about 2,200 (0.71%) showed an effect of 50% or more. Effects have a minus sign here. The list shows a part of the results.

biological target: human ether-à-go-go-related gene (hERG) potassium channel (human, UniProt Q12809); assay: primary screen, population patch clamp on CHO cells stably expressing hERG
Sequence (Q12809 whole entry, looked up): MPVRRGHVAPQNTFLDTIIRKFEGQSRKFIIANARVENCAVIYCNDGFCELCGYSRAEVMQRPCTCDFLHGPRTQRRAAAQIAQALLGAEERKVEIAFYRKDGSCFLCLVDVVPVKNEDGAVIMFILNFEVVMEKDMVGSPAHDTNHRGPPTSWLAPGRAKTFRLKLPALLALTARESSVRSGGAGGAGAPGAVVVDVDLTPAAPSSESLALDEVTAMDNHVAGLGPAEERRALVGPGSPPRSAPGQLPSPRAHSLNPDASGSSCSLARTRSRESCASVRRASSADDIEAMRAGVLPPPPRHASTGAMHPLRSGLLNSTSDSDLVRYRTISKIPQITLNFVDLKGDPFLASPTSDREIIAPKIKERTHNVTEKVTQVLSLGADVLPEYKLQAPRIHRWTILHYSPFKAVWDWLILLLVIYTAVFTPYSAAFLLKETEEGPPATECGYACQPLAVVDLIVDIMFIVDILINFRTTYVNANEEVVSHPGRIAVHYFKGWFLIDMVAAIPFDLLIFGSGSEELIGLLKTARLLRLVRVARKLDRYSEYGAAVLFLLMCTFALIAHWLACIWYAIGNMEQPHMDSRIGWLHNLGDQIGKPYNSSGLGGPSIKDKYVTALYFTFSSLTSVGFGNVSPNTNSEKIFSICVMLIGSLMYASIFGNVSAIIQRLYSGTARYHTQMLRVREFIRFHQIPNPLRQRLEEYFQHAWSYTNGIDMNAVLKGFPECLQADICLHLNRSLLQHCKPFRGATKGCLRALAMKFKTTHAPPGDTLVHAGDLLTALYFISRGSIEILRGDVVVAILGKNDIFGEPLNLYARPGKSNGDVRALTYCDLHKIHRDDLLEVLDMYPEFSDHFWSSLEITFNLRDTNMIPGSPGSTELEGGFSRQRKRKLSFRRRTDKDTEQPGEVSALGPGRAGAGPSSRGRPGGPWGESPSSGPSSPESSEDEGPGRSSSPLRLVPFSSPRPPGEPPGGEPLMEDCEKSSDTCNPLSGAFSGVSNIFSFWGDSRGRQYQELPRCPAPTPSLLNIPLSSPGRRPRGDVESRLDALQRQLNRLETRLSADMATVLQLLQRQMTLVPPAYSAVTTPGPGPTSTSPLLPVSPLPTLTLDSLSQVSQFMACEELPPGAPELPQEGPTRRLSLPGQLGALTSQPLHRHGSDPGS

Structure (SMILES) | hERG current change (%, negative = inhibition) at 1uM
Cc1ccc(C)c(S(=O)(=O)N2CCN(C(=O)CCNS(=O)(=O)c3ccccc3)CC2)c1 | 8.13%
CCOC(=O)c1csc(-c2ccc([N+](=O)[O-])cc2)n1 | 4.25%
CCC1COCCS(=O)(=O)N1Cc1ccccc1F (stereo not shown) | -2.03%
O=c1cc(COc2ncnc3c(Cl)cc(Cl)cc23)nc2sccn12 | 2.24%
CN(C(=O)c1ccc2c(=O)n3c(nc2c1)CCCCC3)c1ccccc1F | -17.7%
C=CCNc1oc(-c2ccc(OC)cc2)nc1C#N | 8.7%
COc1ccc(S(=O)(=O)N2CCCCC2)cc1NC(=O)c1ccc2c(c1)OCO2 | 12.4%
COc1ccc(C(=O)N2CCN(c3ccccn3)CC2)cc1[N+](=O)[O-] | 5.08%
COP(=O)(/C=C(\Cl)c1ccccc1)/C=C(\Cl)c1ccccc1 | 10%
CC(=O)Nc1ccc(S(=O)(=O)Nc2cccc(-c3cn4cccnc4n3)c2)cc1 | 14.4%
COC(=O)Nc1ccc(S(=O)(=O)N2CCCC(C(=O)O)C2)cc1 (stereo not shown) | 19.9%
CCCn1c(SCC(=O)c2cc(C)ccc2C)n[nH]c1=O | 6.97%
CCC(=O)Nc1cccc(C2=NOC3(C2)C[C@@H](C(N)=O)N(C(=O)C(c2ccccc2)c2ccccc2)C3)c1 (stereo partly shown) | 10.7%
CC(C)OCCCNC(=O)CCN1C(=O)COc2ccccc21 | 13.4%
O=C(N/N=C/c1ccc(F)cc1)c1cccc(NC(=O)c2ccc(F)cc2)c1 | 0.21%
O=C(Nc1cccnc1)Nc1cccc(F)c1 | 16.1%
O=c1[nH]c(SCc2nc3ccccc3c(=O)n2-c2ccccc2C(F)(F)F)nc2ccccc12 | 7.05%
CC(=O)c1c(C)[nH]c(C(=O)OCC(=O)Nc2c(C)cccc2C)c1C | 15.9%
CC(=O)Nc1ccc(S(=O)(=O)N(Cc2ccco2)CC2CCCO2)cc1 (stereo not shown) | 14.3%
COC(=O)c1[nH]c2cc(OC)c(OC)cc2c1/C=N/Nc1ccccc1 | 29.7%
CCC(C)N1CCN(S(=O)(=O)c2ccc3ccccc3c2)CC1.O=C(O)C(=O)O (stereo not shown) | 13.4%
COc1ccc(Oc2nc(-c3ccncc3)nc3ccccc23)cc1 | 15.8%

Structure (SMILES) | hERG current change (%, negative = inhibition) at 1uM
O=C(N/N=C/c1cn(-c2ccccc2)nc1-c1cccnc1)c1ccc(F)cc1 | -17.1%
COc1ccc(-n2c(Cc3cccn3C)nnc2SCC(=O)NCCc2ccccc2)cc1 | 12.7%
COc1ccc(C2CC(C(F)(F)F)n3nc(C(=O)O)cc3N2)cc1OC (stereo not shown) | -9.65%
CCOC(=O)c1cn2ccc(C)cc2n1 | -1.3%
Cn1nc(-c2ccc(OCC(N)=O)cc2)c2ccccc2c1=O | 3.45%
CC1CCN(C2=C(NS(=O)(=O)c3ccccc3)C(=O)c3ccccc3C2=O)CC1 | 0.812%
O=C(CSc1ccc(-c2ccc(F)cc2)nn1)NC1CCCCC1 | 5.48%
O=C1CSC(c2ccccn2)N1Cc1cn2ccccc2n1 (stereo not shown) | 5.02%
Cc1nnc(SCCOc2ccccc2)s1 | 13.3%
CCCc1ccc(OCc2nc(-c3ccc(NC(=O)c4cccs4)cc3)no2)cc1 | 6.39%
Cc1ccc(-c2onc3ccc(C=O)cc23)cc1 | 6.48%
O=C(O)c1cc(NS(=O)(=O)c2ccc(N3CCCCC3)c([N+](=O)[O-])c2)cc(C(=O)O)c1 | 5.04%
O=C(O)CCC(=O)Nc1nc2nccc(-c3ccccc3)n2n1 | 1.61%
O=C(c1cc(C(=O)N2CCN(c3ccc(F)cc3)CC2)cc([N+](=O)[O-])c1)N1CCN(c2ccc(F)cc2)CC1 | 5.18%
CCN(CC)C(=O)C1CCCN(C(=O)CCn2nnnc2CN2CCOCC2)C1 (stereo not shown) | 17.5%
CCC(C)n1ncn(-c2ccc(N3CCN(c4ccc(OCC5COC(Cn6cncn6)(c6ccc(Cl)cc6Cl)O5)cc4)CC3)cc2)c1=O (stereo not shown) | 17.6%
Cc1ccc(NC(=O)CC2NCCNC2=O)cc1Cl (stereo not shown) | 16.1%
COc1ccc(NC(=O)c2cc(S(=O)(=O)N3CCCCC3)c[nH]2)cc1Cl | 10.8%
CC(NC(=O)c1ccccc1)c1nnc(SCC(=O)Nc2nnc(C3CC3)s2)n1C (stereo not shown) | 0.0981%
Cc1ccc(-c2csc(/C(C#N)=C/Nc3ccccc3SC(F)(F)F)n2)cc1 | 6.72%
Cc1ccc(F)cc1CNC(=O)C1CCC(=O)N(CCCN2CCCC2=O)C1 (stereo not shown) | 15.4%
